Values marked as one replicate rest on one cluster of the flow cell; about a third of the high ones do not repeat.
These sequences were tested on ATP (assay: switch fluorescence ratio, 500 uM ATP over buffer (Cy3 cluster intensity, sum of 5 cycles each) (fold (ratio)); higher = stronger signal-on switching upon ATP binding; sequences stand for … in TCGTCGGCAGCGTCAGATGTGTATAAGAGACAGTTTTTTTTTTTTTTTTTTTTTTTTT…TC). Conditions: aptamer strand: ATP DNA aptamer (quencher-CACCTGGGGGAGTATTGCGGAGGAAGG + anchor), 100 nM annealed; ATP concentration: 500 uM; one replicate.
In short: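 Values give the fluorescence ratio for each switch-domain sequence, averaged from per-cluster ratios of summed target-cycle to summed buffer-cycle Cy3 intensity. The Cy3-labelled switching-strand clusters sat on a modified Illumina MiSeq flow-cell, were annealed to 100 nM quencher-labelled ATP aptamer, and were imaged in selection buffer, then after 15 min with 500 uM ATP at 22 °C. Five cycles ran with NaOH stripping and re-annealing between them, and clusters outside 100-1000 RFU were excluded.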
Sequence AACCGTGGCT has a switch fluorescence ratio of 1.04.
In the case of AACCTAATG, the switch fluorescence ratio is reported as 1.05.
Sequence AACCTAATGG has a switch fluorescence ratio of 0.996.
For AACCTACCTT, the switch fluorescence ratio was 1.46.
AACCTCATAC gave a switch fluorescence ratio of 1.62.
Work on AACCTCGC yielded a switch fluorescence ratio of 1.17.
AACCTGACAT was tested, and the switch fluorescence ratio was 1.43.
Sequence AACCTGCTTA has a switch fluorescence ratio of 1.03.
Sequence AACCTGGGCG has a switch fluorescence ratio of 1.06.
In the case of AACCTGTACG, the switch fluorescence ratio is reported as 1.16.
In the case of AACCTTGAAT, the switch fluorescence ratio is reported as 0.973.
AACGAAATGC was tested, and the switch fluorescence ratio was 1.94.
With AACGAGGCGC the switch fluorescence ratio was 0.984.
Work on AACGATAGT yielded a switch fluorescence ratio of 1.
For AACGATTCCG, the switch fluorescence ratio was 1.05.
AACGCCTTGG gave a switch fluorescence ratio of 1.01.
Work on AACGCGCCAG yielded a switch fluorescence ratio of 0.979.
AACGCGCCGG showed a switch fluorescence ratio of 1.02.
AACGCTGTAT was tested, and the switch fluorescence ratio was 1.04.
For AACGGAAAGT, the switch fluorescence ratio was 1.18.
Work on AACGGACACT yielded a switch fluorescence ratio of 1.15.
For AACGGAGCTC, the switch fluorescence ratio was 1.24.
AACGGCATT was tested, and the switch fluorescence ratio was 1.02.
Sequence AACGGCCTAA has a switch fluorescence ratio of 1.01.
Work on AACGGCTTTC yielded a switch fluorescence ratio of 1.05.
With AACGGGACTG the switch fluorescence ratio was 0.978.
AACGGGAGGA showed a switch fluorescence ratio of 1.03.
AACGGGGCCT was tested, and the switch fluorescence ratio was 1.05.
AACGGTTTGA showed a switch fluorescence ratio of 0.966.
Sequence AACGTAGGCC has a switch fluorescence ratio of 1.02.
With AACGTCAACT the switch fluorescence ratio was 1.3.
With AACGTCCATA the switch fluorescence ratio was 1.01.
In the case of AACGTCGCCT, the switch fluorescence ratio is reported as 1.03.
AACGTTAGAT showed a switch fluorescence ratio of 1.06.
AACGTTGTCT was tested, and the switch fluorescence ratio was 0.991.
AACTAATGC showed a switch fluorescence ratio of 1.06.
AACTAATTCG gave a switch fluorescence ratio of 0.997.
In the case of AACTACTGAT, the switch fluorescence ratio is reported as 1.03.
AACTAGGCAT showed a switch fluorescence ratio of 1.01.
In the case of AACTAGGCGG, the switch fluorescence ratio is reported as 1.03.
With AACTATCCCA the switch fluorescence ratio was 1.16.
AACTATCTCG was tested, and the switch fluorescence ratio was 0.999.
For AACTATGCTG, the switch fluorescence ratio was 1.07.
AACTCATATG showed a switch fluorescence ratio of 0.975.
Work on AACTCGCGAA yielded a switch fluorescence ratio of 1.09.
AACTCGGAGC gave a switch fluorescence ratio of 1.03.
AACTCGTTCG was tested, and the switch fluorescence ratio was 0.966.
For AACTGAAATA, the switch fluorescence ratio was 0.992.
AACTGACGGG gave a switch fluorescence ratio of 1.26.
In the case of AACTGAGCTG, the switch fluorescence ratio is reported as 1.07.
With AACTGCTGTG the switch fluorescence ratio was 1.01.
For AACTGCTTA, the switch fluorescence ratio was 0.997.
Sequence AACTGGAGAG has a switch fluorescence ratio of 0.983.
AACTGGCATC gave a switch fluorescence ratio of 1.04.
Work on AACTGTCCCG yielded a switch fluorescence ratio of 1.01.
AACTTACTGA was tested, and the switch fluorescence ratio was 1.2.
In the case of AACTTCTCGG, the switch fluorescence ratio is reported as 1.06.
AACTTTCTAA showed a switch fluorescence ratio of 1.01.
In the case of AACTTTTTT, the switch fluorescence ratio is reported as 1.03.
In the case of AAGAACACTT, the switch fluorescence ratio is reported as 1.
AAGAAGATAT showed a switch fluorescence ratio of 0.993.
For AAGAAGGCGT, the switch fluorescence ratio was 0.998.
With AAGAATTCGG the switch fluorescence ratio was 0.983.
Work on AAGACAACT yielded a switch fluorescence ratio of 0.99.
For AAGACACCAC, the switch fluorescence ratio was 1.21.
AAGACACCGT gave a switch fluorescence ratio of 1.01.
In the case of AAGACCAGAC, the switch fluorescence ratio is reported as 1.19.
AAGACCGGCT was tested, and the switch fluorescence ratio was 1.05.
Work on AAGACGAAGT yielded a switch fluorescence ratio of 1.01.
For AAGACGCGCT, the switch fluorescence ratio was 1.02.
With AAGACGGTG the switch fluorescence ratio was 1.07.
AAGACGTAAT gave a switch fluorescence ratio of 1.19.
In the case of AAGACGTGCT, the switch fluorescence ratio is reported as 0.964.
AAGACTCGCT gave a switch fluorescence ratio of 1.03.
For AAGACTTACT, the switch fluorescence ratio was 1.17.
Work on AAGACTTCGG yielded a switch fluorescence ratio of 1.02.
Work on AAGAGATGGA yielded a switch fluorescence ratio of 1.04.
Sequence AAGAGATGGT has a switch fluorescence ratio of 0.961.
Sequence AAGAGCGTTG has a switch fluorescence ratio of 1.03.
AAGAGGAAA gave a switch fluorescence ratio of 0.955.
AAGAGGAAAG was tested, and the switch fluorescence ratio was 1.03.
AAGAGGACCC gave a switch fluorescence ratio of 0.953.
For AAGAGGCTCA, the switch fluorescence ratio was 1.02.
Work on AAGAGGTACT yielded a switch fluorescence ratio of 1.01.
For AAGATAACTC, the switch fluorescence ratio was 1.03.
AAGATCG gave a switch fluorescence ratio of 0.989.
AAGATCGCTT showed a switch fluorescence ratio of 1.04.
With AAGATCGGCG the switch fluorescence ratio was 0.995.
Sequence AAGATCGTCC has a switch fluorescence ratio of 1.07.
AAGATCTCAC was tested, and the switch fluorescence ratio was 1.03.
Sequence AAGATCTCAG has a switch fluorescence ratio of 0.99.
AAGATCTTTA gave a switch fluorescence ratio of 1.03.
For AAGATGAAGA, the switch fluorescence ratio was 0.967.
For AAGATGATTT, the switch fluorescence ratio was 1.03.
In the case of AAGATGGGCG, the switch fluorescence ratio is reported as 1.03.
Sequence AAGATGGTGA has a switch fluorescence ratio of 0.995.
AAGATGGTTT was tested, and the switch fluorescence ratio was 0.978.
AAGATGTAC was tested, and the switch fluorescence ratio was 1.06.
Sequence AAGATGTGGT has a switch fluorescence ratio of 0.978.
AAGATTCTCC gave a switch fluorescence ratio of 1.06.
For AAGATTTGCG, the switch fluorescence ratio was 0.962.
With AAGCAATCGT the switch fluorescence ratio was 0.967.
Work on AAGCAATTCG yielded a switch fluorescence ratio of 2.
For AAGCAGAGTG, the switch fluorescence ratio was 1.01.
With AAGCAGCATC the switch fluorescence ratio was 1.14.
In the case of AAGCAGGACT, the switch fluorescence ratio is reported as 1.36.
With AAGCAGGTGA the switch fluorescence ratio was 1.38.
Work on AAGCATGGAT yielded a switch fluorescence ratio of 1.
With AAGCCAGACT the switch fluorescence ratio was 1.23.
AAGCCAGGTT gave a switch fluorescence ratio of 1.05.
For AAGCCCCGCG, the switch fluorescence ratio was 0.922.
Work on AAGCCCTTA yielded a switch fluorescence ratio of 1.03.
With AAGCCGTATC the switch fluorescence ratio was 0.972.
With AAGCCTGTTC the switch fluorescence ratio was 1.03.
Sequence AAGCGAATGT has a switch fluorescence ratio of 0.974.
With AAGCGACCTG the switch fluorescence ratio was 1.01.
With AAGCGATACG the switch fluorescence ratio was 2.47.
Sequence AAGCGATAGT has a switch fluorescence ratio of 1.15.
In the case of AAGCGCACTG, the switch fluorescence ratio is reported as 1.08.
AAGCGGAGCT was tested, and the switch fluorescence ratio was 0.958.
Work on AAGCGGATCG yielded a switch fluorescence ratio of 1.03.
With AAGCGGTTGG the switch fluorescence ratio was 1.04.
Work on AAGCGTGAAT yielded a switch fluorescence ratio of 1.02.
In the case of AAGCGTGGCA, the switch fluorescence ratio is reported as 0.999.
AAGCTATACG gave a switch fluorescence ratio of 1.81.
With AAGCTCACGT the switch fluorescence ratio was 1.04.
AAGCTCTACT was tested, and the switch fluorescence ratio was 1.07.
AAGCTGGGCG showed a switch fluorescence ratio of 1.05.
For AAGGAAAGAA, the switch fluorescence ratio was 1.03.
AAGGAATGGG showed a switch fluorescence ratio of 0.955.
For AAGGAGAGTT, the switch fluorescence ratio was 1.
AAGGAGGACT gave a switch fluorescence ratio of 0.962.
AAGGAGGTG gave a switch fluorescence ratio of 1.06.
AAGGAGTTCT was tested, and the switch fluorescence ratio was 1.02.
With AAGGATACAT the switch fluorescence ratio was 1.04.
Sequence AAGGATCGGA has a switch fluorescence ratio of 1.02.
AAGGATTTGT gave a switch fluorescence ratio of 0.966.
Sequence AAGGCACACA has a switch fluorescence ratio of 1.05.
AAGGCGAACT was tested, and the switch fluorescence ratio was 1.01.
In the case of AAGGCGTAAC, the switch fluorescence ratio is reported as 0.95.
With AAGGCTTTCA the switch fluorescence ratio was 1.02.
With AAGGGAACCG the switch fluorescence ratio was 1.23.
Sequence AAGGGATCGT has a switch fluorescence ratio of 0.98.
In the case of AAGGGATGAA, the switch fluorescence ratio is reported as 1.03.
With AAGGGGAACG the switch fluorescence ratio was 0.975.
With AAGGGGAAG the switch fluorescence ratio was 1.03.
For AAGGGGTAGC, the switch fluorescence ratio was 1.05.
AAGGGGTTTA gave a switch fluorescence ratio of 1.03.
Sequence AAGGGTCTCC has a switch fluorescence ratio of 0.983.
For AAGGTAAATT, the switch fluorescence ratio was 1.02.
In the case of AAGGTAGCCA, the switch fluorescence ratio is reported as 1.02.
With AAGGTATGG the switch fluorescence ratio was 1.02.
With AAGGTCCAG the switch fluorescence ratio was 0.989.
AAGGTTATGA was tested, and the switch fluorescence ratio was 1.02.
Work on AAGGTTGTTA yielded a switch fluorescence ratio of 1.
In the case of AAGTAAATAT, the switch fluorescence ratio is reported as 1.01.
With AAGTAACGTA the switch fluorescence ratio was 1.08.
In the case of AAGTAAGCTC, the switch fluorescence ratio is reported as 0.978.
AAGTAATAGA showed a switch fluorescence ratio of 0.996.
Sequence AAGTAATCCC has a switch fluorescence ratio of 0.995.
With AAGTACGGGC the switch fluorescence ratio was 1.15.
Sequence AAGTACGGT has a switch fluorescence ratio of 1.3.
For AAGTACTCCT, the switch fluorescence ratio was 1.4.
AAGTAGGCAG was tested, and the switch fluorescence ratio was 1.07.
With AAGTAGTTGT the switch fluorescence ratio was 0.981.
In the case of AAGTATACCT, the switch fluorescence ratio is reported as 1.1.
AAGTATTGCA showed a switch fluorescence ratio of 0.999.
AAGTCAAACG was tested, and the switch fluorescence ratio was 1.02.
With AAGTCAATTG the switch fluorescence ratio was 0.986.
In the case of AAGTCCGTT, the switch fluorescence ratio is reported as 1.08.
Work on AAGTCCTA yielded a switch fluorescence ratio of 0.964.
For AAGTCCTAGT, the switch fluorescence ratio was 0.953.
AAGTCCTCAT showed a switch fluorescence ratio of 1.
In the case of AAGTCCTGTT, the switch fluorescence ratio is reported as 0.996.
Work on AAGTCGAATG yielded a switch fluorescence ratio of 1.02.
For AAGTCTGTGG, the switch fluorescence ratio was 0.991.
AAGTCTTCC was tested, and the switch fluorescence ratio was 1.48.
AAGTGAATCT was tested, and the switch fluorescence ratio was 1.04.
For AAGTGACTAT, the switch fluorescence ratio was 0.989.
AAGTGGTGAC gave a switch fluorescence ratio of 1.
Work on AAGTGTATAG yielded a switch fluorescence ratio of 0.959.
For AAGTTCACCG, the switch fluorescence ratio was 1.02.
Work on AAGTTCGGAC yielded a switch fluorescence ratio of 1.07.
Work on AAGTTGGGCG yielded a switch fluorescence ratio of 1.06.
AAGTTTCCAG showed a switch fluorescence ratio of 1.01.
In the case of AAGTTTGGAG, the switch fluorescence ratio is reported as 0.986.
Sequence AAGTTTGTCG has a switch fluorescence ratio of 0.925.
Work on AATAACAGGG yielded a switch fluorescence ratio of 1.08.
In the case of AATAACCCGT, the switch fluorescence ratio is reported as 1.15.
AATAACCTGG was tested, and the switch fluorescence ratio was 1.2.
AATAAGTTGG showed a switch fluorescence ratio of 1.01.
AATAATGCAG showed a switch fluorescence ratio of 1.03.
AATAATTCCT was tested, and the switch fluorescence ratio was 1.
With AATAATTTAT the switch fluorescence ratio was 0.98.
AATACACTCT gave a switch fluorescence ratio of 1.05.
In the case of AATACAGA, the switch fluorescence ratio is reported as 1.02.
Sequence AATACCAACT has a switch fluorescence ratio of 1.11.
For AATACCCGCC, the switch fluorescence ratio was 1.31.
For AATACCCTTC, the switch fluorescence ratio was 1.15.
AATACCTTCG gave a switch fluorescence ratio of 2.22.
AATACGGCGA gave a switch fluorescence ratio of 1.08.

— the supplement of paper PMC10126150
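Also: ATP exposure 15 min at 22 °C before imaging.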
